Among the data in paper PMC5207708 are binding values, retold here.

The chains behind the UniProt entries cited, without tags or fusion partners. Where a name states a change or a piece, a line headed by the entry shows the natural chain unless it says otherwise. A line that says so, or that is headed by a name, gives the form on record, which may keep a tag or linker.
UniProt Q7Z3K6: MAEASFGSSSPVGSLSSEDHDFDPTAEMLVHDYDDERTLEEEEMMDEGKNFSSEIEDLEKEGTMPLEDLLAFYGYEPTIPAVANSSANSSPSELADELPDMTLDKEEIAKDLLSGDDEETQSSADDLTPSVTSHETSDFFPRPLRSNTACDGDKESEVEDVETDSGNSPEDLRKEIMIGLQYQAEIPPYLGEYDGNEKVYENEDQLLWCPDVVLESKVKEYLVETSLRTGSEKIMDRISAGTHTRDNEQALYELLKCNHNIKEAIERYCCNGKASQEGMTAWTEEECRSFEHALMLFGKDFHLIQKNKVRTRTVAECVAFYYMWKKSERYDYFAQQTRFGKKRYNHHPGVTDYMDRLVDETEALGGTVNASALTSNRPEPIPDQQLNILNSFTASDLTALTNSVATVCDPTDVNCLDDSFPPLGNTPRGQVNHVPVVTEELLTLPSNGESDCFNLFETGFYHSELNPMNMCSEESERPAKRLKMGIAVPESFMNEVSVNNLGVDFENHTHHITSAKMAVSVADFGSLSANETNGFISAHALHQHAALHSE
MIER3 isoform 3 (Q7Z3K6, form named): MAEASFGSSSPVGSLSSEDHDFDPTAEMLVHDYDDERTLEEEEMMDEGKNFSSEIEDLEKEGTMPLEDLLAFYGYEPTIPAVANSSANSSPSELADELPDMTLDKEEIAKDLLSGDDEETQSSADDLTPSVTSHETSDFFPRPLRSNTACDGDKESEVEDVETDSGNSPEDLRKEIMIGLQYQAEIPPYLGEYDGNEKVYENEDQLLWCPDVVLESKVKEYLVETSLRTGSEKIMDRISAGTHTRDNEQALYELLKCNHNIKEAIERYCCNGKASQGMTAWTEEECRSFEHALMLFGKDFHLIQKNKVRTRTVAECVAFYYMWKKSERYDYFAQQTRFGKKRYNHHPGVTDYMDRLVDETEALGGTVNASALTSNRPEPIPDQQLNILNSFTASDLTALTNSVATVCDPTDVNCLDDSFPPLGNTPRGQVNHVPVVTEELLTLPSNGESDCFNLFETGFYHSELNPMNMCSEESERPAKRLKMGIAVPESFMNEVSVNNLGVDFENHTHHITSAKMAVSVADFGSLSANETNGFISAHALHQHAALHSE
UniProt Q13330: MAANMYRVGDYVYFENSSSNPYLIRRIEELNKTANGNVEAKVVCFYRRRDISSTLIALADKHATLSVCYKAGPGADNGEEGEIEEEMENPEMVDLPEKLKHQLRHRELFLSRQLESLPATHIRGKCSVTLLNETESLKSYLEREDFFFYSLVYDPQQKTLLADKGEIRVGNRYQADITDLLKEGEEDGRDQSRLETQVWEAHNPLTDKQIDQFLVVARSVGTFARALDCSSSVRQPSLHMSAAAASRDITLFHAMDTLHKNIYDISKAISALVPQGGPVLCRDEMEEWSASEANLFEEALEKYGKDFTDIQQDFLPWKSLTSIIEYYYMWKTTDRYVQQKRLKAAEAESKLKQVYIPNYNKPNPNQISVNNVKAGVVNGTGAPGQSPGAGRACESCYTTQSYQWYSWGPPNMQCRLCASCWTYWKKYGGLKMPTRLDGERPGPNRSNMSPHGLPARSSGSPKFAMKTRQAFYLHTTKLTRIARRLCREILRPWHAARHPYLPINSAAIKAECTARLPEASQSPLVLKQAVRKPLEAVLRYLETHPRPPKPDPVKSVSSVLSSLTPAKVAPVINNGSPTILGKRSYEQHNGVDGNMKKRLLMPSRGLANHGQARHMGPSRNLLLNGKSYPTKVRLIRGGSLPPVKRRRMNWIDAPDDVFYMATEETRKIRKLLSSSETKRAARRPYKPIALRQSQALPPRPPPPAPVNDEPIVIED
UniProt Q92769: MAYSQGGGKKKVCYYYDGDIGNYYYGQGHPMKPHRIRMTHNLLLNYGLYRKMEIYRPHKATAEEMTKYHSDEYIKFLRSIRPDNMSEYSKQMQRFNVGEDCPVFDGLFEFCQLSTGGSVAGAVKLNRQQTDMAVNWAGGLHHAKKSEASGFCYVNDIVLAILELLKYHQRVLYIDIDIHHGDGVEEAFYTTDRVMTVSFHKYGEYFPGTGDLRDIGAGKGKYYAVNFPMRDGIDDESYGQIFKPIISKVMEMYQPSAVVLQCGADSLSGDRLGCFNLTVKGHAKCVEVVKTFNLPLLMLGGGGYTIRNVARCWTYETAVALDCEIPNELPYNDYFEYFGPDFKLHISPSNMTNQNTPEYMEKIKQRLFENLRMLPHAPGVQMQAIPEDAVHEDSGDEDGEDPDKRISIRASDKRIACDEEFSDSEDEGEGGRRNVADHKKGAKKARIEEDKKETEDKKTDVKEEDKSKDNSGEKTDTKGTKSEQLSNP
UniProt Q13547: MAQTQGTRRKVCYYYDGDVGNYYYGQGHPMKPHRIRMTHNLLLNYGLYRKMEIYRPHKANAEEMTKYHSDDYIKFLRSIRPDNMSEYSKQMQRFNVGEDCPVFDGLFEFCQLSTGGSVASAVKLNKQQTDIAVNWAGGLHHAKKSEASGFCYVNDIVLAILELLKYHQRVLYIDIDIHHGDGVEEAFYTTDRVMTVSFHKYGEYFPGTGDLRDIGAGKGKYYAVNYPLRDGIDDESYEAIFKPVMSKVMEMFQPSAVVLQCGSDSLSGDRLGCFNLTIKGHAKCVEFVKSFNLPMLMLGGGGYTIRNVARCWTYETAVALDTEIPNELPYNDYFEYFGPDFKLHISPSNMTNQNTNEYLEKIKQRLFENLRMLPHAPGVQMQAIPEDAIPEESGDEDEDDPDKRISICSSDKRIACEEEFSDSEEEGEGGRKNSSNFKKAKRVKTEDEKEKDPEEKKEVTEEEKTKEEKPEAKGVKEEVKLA

Experiment [1] has as its target T1, MIER2 (UniProt Q8N344).
T1 sequence: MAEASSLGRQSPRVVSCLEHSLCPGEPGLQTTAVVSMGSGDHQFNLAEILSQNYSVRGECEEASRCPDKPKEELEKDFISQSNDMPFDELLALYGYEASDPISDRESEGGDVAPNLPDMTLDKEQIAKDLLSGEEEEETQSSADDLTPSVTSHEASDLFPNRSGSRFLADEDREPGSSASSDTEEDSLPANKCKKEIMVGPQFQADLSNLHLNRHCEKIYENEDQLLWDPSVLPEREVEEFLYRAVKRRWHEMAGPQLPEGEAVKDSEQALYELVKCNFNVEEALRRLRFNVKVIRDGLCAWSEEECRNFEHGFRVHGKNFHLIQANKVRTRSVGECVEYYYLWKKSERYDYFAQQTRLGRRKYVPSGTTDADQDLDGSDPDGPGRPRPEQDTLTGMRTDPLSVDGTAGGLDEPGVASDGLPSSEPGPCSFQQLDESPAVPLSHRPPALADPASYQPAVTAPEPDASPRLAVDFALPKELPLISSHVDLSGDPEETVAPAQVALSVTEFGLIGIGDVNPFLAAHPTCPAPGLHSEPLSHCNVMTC
Kind of experiment: co-IP; HEK293 cells co-transfected with a myc-tagged and a flag-tagged protein; lysis in 1% Triton X-100, 150 mM NaCl, 20 mM Tris-Cl pH 7.5, 1 mM EDTA; IP with 9E10 anti-myc overnight at 4°C; Western with anti-flag.

A further experiment concerns the target MIER3 isoform 1 (UniProt Q7Z3K6). Described as above.
The target in a further experiment is T2, MIER2-Δ3 (UniProt Q8N344).
T2 sequence: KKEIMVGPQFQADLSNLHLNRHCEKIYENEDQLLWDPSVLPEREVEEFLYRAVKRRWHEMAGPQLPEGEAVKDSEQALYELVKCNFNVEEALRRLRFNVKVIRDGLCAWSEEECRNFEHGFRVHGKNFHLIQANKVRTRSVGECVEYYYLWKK
The experiment is described as follows: co-IP; HEK293 cells transfected with the myc-tagged protein; lysis in 1% Triton X-100, 150 mM NaCl, 20 mM Tris-Cl pH 7.5, 1 mM EDTA; IP with 9E10 anti-myc overnight at 4°C; endogenous HDAC1 and HDAC2 by Western; band densitometry (HDAC:MIER ratio); also with or without 12.5 μM Ins(1,4,5,6)P4 during the IP (no substantial difference).

The next experiment deals with T3, MIER2-Δ2 (UniProt Q8N344).
T3 sequence: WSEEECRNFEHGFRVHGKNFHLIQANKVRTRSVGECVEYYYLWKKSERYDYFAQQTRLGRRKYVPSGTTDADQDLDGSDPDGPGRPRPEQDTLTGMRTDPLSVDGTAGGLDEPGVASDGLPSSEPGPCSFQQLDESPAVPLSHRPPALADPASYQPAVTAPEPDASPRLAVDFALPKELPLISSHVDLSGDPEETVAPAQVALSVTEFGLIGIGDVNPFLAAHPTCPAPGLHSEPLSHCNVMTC
The description is as above.

The next experiment addresses MTA1 (UniProt Q13330). The description is as above.
A further experiment addresses T4, MIER2-Δ1 (UniProt Q8N344).
T4 sequence: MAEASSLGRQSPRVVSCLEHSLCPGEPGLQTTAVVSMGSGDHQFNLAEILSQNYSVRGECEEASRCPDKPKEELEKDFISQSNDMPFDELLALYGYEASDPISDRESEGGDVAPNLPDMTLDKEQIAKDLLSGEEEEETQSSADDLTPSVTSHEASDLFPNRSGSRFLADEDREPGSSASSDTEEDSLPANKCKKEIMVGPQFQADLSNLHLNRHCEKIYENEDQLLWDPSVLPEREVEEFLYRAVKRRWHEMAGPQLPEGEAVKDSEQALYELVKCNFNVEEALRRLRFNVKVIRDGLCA
Described as above.

The target in a further experiment is T5, MIER2-Δ4 (UniProt Q8N344).
T5 sequence: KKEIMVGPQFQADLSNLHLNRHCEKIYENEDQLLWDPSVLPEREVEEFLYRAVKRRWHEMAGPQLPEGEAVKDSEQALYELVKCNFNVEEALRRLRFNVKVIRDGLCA
Described as above.

Another experiment addresses MIER3 isoform 3 (UniProt Q7Z3K6). The description is as above.
For experiment [2], the target named is T6, MIER2 containing a point mutation 228W→A in the ELM2 domain (UniProt Q8N344).
T6 sequence: T1 sequence with W228A
The description is as above.

Experiment [3] addresses T1, MIER2. Kind of experiment: co-IP; HeLa cells transfected with the myc-tagged protein; IP with 9E10 anti-myc; endogenous HDAC1 and HDAC2 by Western.
Experiment [4] has as its target T1, MIER2. Kind of experiment: co-IP; MCF7 cells transfected (electroporation) with the myc-tagged protein; IP with 9E10 anti-myc; endogenous HDAC1 and HDAC2 by Western; band densitometry.

Substitutions are numbered along the chain they refer to. No constants are given. Whether binding was seen depends on the method and setting. In cells and extracts the contact can be indirect. Some binding calls cover weakened binding; strength is not graded here.

As for “MIER3 isoform 1 (from UniProt Q7Z3K6-1 1-550)”, the binding result in the experiment with MIER2 [1] and with MIER3 isoform 1 was “no binding” throughout.

In the case of “HDAC2 (from UniProt Q92769 1-488) (enzyme)”, the binding entry with MIER2-Δ3 is on record as “binds”; with MIER2-Δ2, “no binding”; with MTA1 it was “binds”; in the experiment with MIER2-Δ1, “binds”; with MIER2-Δ4, “binds”; in the experiment with MIER3 isoform 3, “binds weakly”. Besides, the binding result in experiment [2] is given as “no binding”.

In the case of “HDAC1 (from UniProt Q13547 1-482) (enzyme)”, the binding result in the experiment with MIER2-Δ3 is on record as “binds”; with MIER2-Δ2 it was “no binding”; in the experiment with MTA1, “binds”; with MIER2-Δ1, “binds”; with MIER2-Δ4, “binds”; with MIER3 isoform 3 it was “binds weakly”. Further, the binding entry in experiment [2] is listed as “no binding”; with MIER2 [3] it was “binds”; with MIER2 [4], “binds”.

B1: MIER2 (protein, UniProt Q8N344 1-545)
chain: T1 sequence
With B1, the binding result with MIER2 [1] and with MIER3 isoform 1 was “no binding” each time.
